The other results are listed elsewhere or left out.
T1: UNK ZnF1-3 (human, UniProt Q9C0B0 31-174)
T1 sequence: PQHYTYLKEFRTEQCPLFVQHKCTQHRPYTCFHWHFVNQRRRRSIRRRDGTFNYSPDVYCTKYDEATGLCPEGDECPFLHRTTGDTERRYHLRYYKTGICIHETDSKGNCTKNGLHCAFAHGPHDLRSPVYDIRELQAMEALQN

B1: chr5:128448638:128448639:+_ENSG00000066583_ENST00000173527|hu_mus|hu_hu_hu_mus_False|28_68 (ssRNA)
RNA: GGGAGUUCUACAGUCCGACGAUCGGCACUCGCCUUAAUUAGGUUCUGAAUUUCCUUGAACUUCGGGUGGUCCUUAUCAGCCACCAGCUGUAGGAGGACAGCCUCACUCGUGGUCACGAUGAUCCCAGUGCGGGCAAGACGCUCCAACAGAGGAUUGAGCAUCA
B2: 101157611_101163074_311_3pUTR_ENSMUSG00000035086_ENSMUST00000041403|mouse|control|control (ssRNA)
RNA: GGGAGUUCUACAGUCCGACGAUCGAGUUUCAAUAAAUGGCUCCUCUCCUGAGUUAGCCUCUUCCUCCUGGGUCUCUCCUGGUUUCGCCUGGGCUGUGGUAAGUAAUGGAGCUGUGAGUUCCUGGAUGGUGACCCGGUCCAGGACAACAGAGGAUUGAGCAUCA
B3: chr3:9412954:9412955:+_ENSG00000134077_ENST00000452837|hu_mus|hu_hu_hu_mus_False|18_68 (ssRNA)
RNA: GGGAGUUCUACAGUCCGACGAUCGGUUGAUAUCUCUUCUUUGAUGGCUGGAUUUUCAUAAUAGUCCAAGAUAUGAGAAUCUGAAGUGCUGCUGGCAUGCUUUUUCUUACCAUCUUUCUGAUCGAUUUUGUCUCCUUGUCCACACAACAGAGGAUUGAGCAUCA
B4: chr7:140404665:140404666:+_ENSG00000090266_ENST00000247866|hu_hu|hu_hu_hu_mus_False|1_98 (ssRNA)
RNA: GGGAGUUCUACAGUCCGACGAUCUGCUCCUACUCGUAGGCUGAGUCUACAGUGUCAGUCCUCGUCAUCAGGAGGGAUUCCCAGUUCUUCAUCUGUCCACUGUGAAGGAUCUGGAUAUGAAAAGUGACCCAGCACAGCUUCUGACAACAGAGGAUUGAGCAUCA
B5: chr17:57761033:57761034:+_ENSG00000141367_ENST00000269122|hu_hu|motif|central (ssRNA)
RNA: GGGAGUUCUACAGUCCGACGAUCAUCCAACCGUGGAGACAGCACCAUCAGCAAAUCAUUUAACAACAGAGGCUUGAAUUCGGAGUAGAACUGUAUUGCUCUGUAGUAUAGUUCCACAUUGGCAACCUUGGUAAUGAUAUCUUUCAACAGAGGAUUGAGCAUCA
B6: chr6:99849430:99849431:-_ENSG00000132424_ENST00000438806|hu_mus|motif|central (ssRNA)
RNA: GGGAGUUCUACAGUCCGACGAUCUCUUUUCUUGUCAUUGACCGCAUCACGGUCGGCUUCACUUGCUUCUAGAAGUGAUAAACGGUUUUGCUCUCUGUGAAUAAAUUCAUUCAUCUCUUUUGUAACCCUUUCUGUUUGCUGCUUCAACAGAGGAUUGAGCAUCA
B7: 99061608_99061728_1756_CDS_ENSG00000152767_ENST00000319562|human|control|control (ssRNA)
RNA: GGGAGUUCUACAGUCCGACGAUCCAGCAGCGGGCUGAUCAAGGGAGAGGCCUGCUUGGUGUCGGGGCUCAGGUUGGGAGACAAGGUCACGUUGGCAGGGGCCACUCCCCCCUGCGAGUUCACAGACAGCUCGGAAAGGUGAGGCAACAGAGGAUUGAGCAUCA
B8: 42058404_42058524_8184_CDS_ENSG00000174197_ENST00000570161|human|control|control (ssRNA)
RNA: GGGAGUUCUACAGUCCGACGAUCAGAAAUCUUUUUAGGUAAGAACUCUUGUGCUUUCUGCAUAUUGGAAACGUCAACUAUUUGUGGAUAACCAGAAUCUUUGUUUGCCAGAAAAACCUGCGUUGGACCCAACGUCACUCUGCCCAACAGAGGAUUGAGCAUCA
B9: chr2:48782664:48782665:-_ENSMUSG00000026761_ENSMUST00000141441|mus_mus|motif|central (ssRNA)
RNA: GGGAGUUCUACAGUCCGACGAUCUCACUCUCUUUUCUAAGAGUUCCAAAAUAUCCAAUCUACAUGUAAGUCCAAUAACUGCGGCUGGUGUCUGUGCAGAUUGAGAAAUGUCAAAAAGAUUAUAAAGGAGUGUUUGAUUUUUCUCAACAGAGGAUUGAGCAUCA
B10: chr5:135101456:135101457:-_ENSMUSG00000040731_ENSMUST00000036125|mus_hu|motif|central (ssRNA)
RNA: GGGAGUUCUACAGUCCGACGAUCGCCCAACAGUGCACCAUCGUAUGUCAAGGCUUCCUUAAGGGAAUCCACUUCAUCGAAUUCGGCAUAGCAGAAUCCUUUAAAUUUAUCUGUGUCUUUGUCUCUGACUAGCCGUACACUCCUCAACAGAGGAUUGAGCAUCA
B11: chr1:35656411:35656412:-_ENSG00000116560_ENST00000357214|hu_mus|FALSE|FALSE (ssRNA)
RNA: GGGAGUUCUACAGUCCGACGAUCUGGCUUGGAAGCAAACUCAACAAUGCCUUUCCCUGUAGAUCUUCCGCGAUCAUCCACAAUUACAACAGCCCUUUCAAUAGGACCAAACUGGCUAAAGGCCUCUUCCAAAAGUUCGUUGGACAACAGAGGAUUGAGCAUCA
B12: chr17:24706804:24706805:+_ENSMUSG00000032855_ENSMUST00000035565|mus_mus|motif|central (ssRNA)
RNA: GGGAGUUCUACAGUCCGACGAUCGCAAUCUUGCUUGAGAAAAUCCACCUCAGGAGGGCAGGCAUCCUCGAAGGGAGCACGGAUAUUGCCCCCAAACCACUGAGCUGUGGCAGUGGCAUUAGCACCAGAAUCUACCUGAAGCACCAACAGAGGAUUGAGCAUCA
B13: chr18:48447474:48447475:+_ENSG00000082212_ENST00000321341|hu_mus|FALSE|FALSE (ssRNA)
RNA: GGGAGUUCUACAGUCCGACGAUCCCAGAUCUUUCUCUGCGCCUCCUCUUCUGAGAGACCACUUUCCACCAUUGAUAGAACUAUGAGAUUGGCAAUUCCAAGUGCAGCUUCUCCUGCUCCAAGAAAUAAGAUUUUGUGUUCUGACAACAGAGGAUUGAGCAUCA
B14: 64394397_64394517_860_CDS_ENSG00000118482_ENST00000393387|human|control|control (ssRNA)
RNA: GGGAGUUCUACAGUCCGACGAUCAUCAUUUUGUUCAUGUUCUUCUUUAUCUGAAAACUUAAACAAUGGACUACCAACAGGCUUGGCUUUACAUUCCAUCAAAGCUUCAUUUUUCUUUUCUCCAAUAGUAACACAAGUCUCUGACAACAGAGGAUUGAGCAUCA
B15: chr4:148551591:148551592:-_ENSMUSG00000063077_ENSMUST00000060537|mus_hu|mus_mus_mus_hu_False|28_48 (ssRNA)
RNA: GGGAGUUCUACAGUCCGACGAUCACCUGACAAAAUUAAAUAUCCCUGUAAAUUAGACAAUAAGCAGCAGGCAACAAAGUCUUUGCUUUGAAAUAUGUGCCAGGAAAAAUCAUGUUUUUUUUAGAUCUCAAGAGACAGUUCACACAACAGAGGAUUGAGCAUCA
B16: chr12:16048344:16048345:+_ENSG00000023734_ENST00000419869|hu_hu|hu_hu_hu_mus_True|78_78 (ssRNA)
RNA: GGGAGUUCUACAGUCCGACGAUCAGAUCGUCCAUAAGUAAUAACCAAAAUCUCUCCCUCAGGAAUAUACUCCAUGCUGCUAACAGACAUAUUAAAAUUCAGAGAUUUCACUUCUGUCAUUGUGGCAUGAUCCCAGAGCCGAACCAACAGAGGAUUGAGCAUCA
B17: 110098843_110100180_2223_3pUTR_ENSMUSG00000032481_ENSMUST00000088716|mouse|control|control (ssRNA)
RNA: GGGAGUUCUACAGUCCGACGAUCCUUCAACCAAUUCCAGGGGUACUUCUUCUCGGACACGAGAAAACUCCUCCAACGCUGCUUUUGCUGCAGCAGAUGCUACACGGGGGUCAACGACAGAUGCUAAAAAGGCAACAGUGCUCACAACAGAGGAUUGAGCAUCA
B18: chrX:71482573:71482574:-_ENSMUSG00000031328_ENSMUST00000144429|mus_mus|motif|central (ssRNA)
RNA: GGGAGUUCUACAGUCCGACGAUCCUCCCACUGAAAAUGGACUCUUGGGGAUGUGAUCUCCUCCAUAAGUGACAUUGACACCGGCUGGGCCCUGCUGCACAGGAAUGUACUUGACUGUGUAGGUAUUAUCAUGGUGGUCAAUGACAACAGAGGAUUGAGCAUCA
B19: chr3:107877451:107877452:-_ENSMUSG00000027889_ENSMUST00000078912|mus_hu|FALSE|FALSE (ssRNA)
RNA: GGGAGUUCUACAGUCCGACGAUCGCCCCGUGCCCACAGCAGAGGUGUAGAGGUCCCCCGCCUGCCCCUCGGCUACAUGAACAAGACAGGGGCCUAAACUUCGGCCCUGGCCAAGGCUUAGAUUUGCCCAGGAAGGACCGGAAACAACAGAGGAUUGAGCAUCA
B20: 30676126_30679462_2817_CDS_ENSG00000137337_ENST00000376406|human|control|control (ssRNA)
RNA: GGGAGUUCUACAGUCCGACGAUCUAGGGUACCUGUUGUCUGGAAGCUGCAAUGGGAAGGGCCAAGCUCUUGGGGUGGAGUCAACAUGAAGGCCUGGGUAGGUUCAUCCUCCAUGCUCUGGACUGCUUCCAGGCCCUGAUUCUCCAACAGAGGAUUGAGCAUCA
B21: chr7:135832182:135832183:+_ENSMUSG00000042105_ENSMUST00000118605|mus_mus|FALSE|FALSE (ssRNA)
RNA: GGGAGUUCUACAGUCCGACGAUCGACAAUGGUCGCAUAAAAAGCGCUGUCUUCCGGGGACAUUAACAUCAAGCUUUGGAAAAGAAGUAAUUUACAGGAAAAAUACAGCCCCACUGGCACUUUAACCAUAAGUCCUGCAAAAAGCAACAGAGGAUUGAGCAUCA
B22: chr3:176767854:176767855:-_ENSG00000177565_ENST00000430069|hu_hu|hu_hu_hu_mus_False|58_88 (ssRNA)
RNA: GGGAGUUCUACAGUCCGACGAUCGACAUCCUUGUUACUGGGCACGUCUUGCCCUCCUUCCCGUAUGCAGUGUCUAAGUACUAACUGCGUAGGGCCACUCGUGCUGUUCUCACUGAGGUUCCAGAUUCUUGCCGUGGAGUCUCCCAACAGAGGAUUGAGCAUCA

What follows are binders tested against T1, UNK ZnF1-3 (assay: nsRBNS (natural sequence RNA bind-n-seq); RBNS binding buffer (assumed for nsRBNS): 25 mM Tris pH 7.5, 150 mM KCl, 3 mM MgCl2, 0.01% Triton X-100, 500 ug/ml BSA, 20 U/ml SUPERase-In, 4 C; UNK is unkempt and MSI1 is Musashi-1; names of the RNAs are library labels; protein concentration not given here; high values mean tight binding).
B1 gave a binding signal of 0.736 enrichment R.
Binder B2 has a binding signal of 0.637 enrichment R.
B3 gave a binding signal of 0.506 enrichment R.
B4 gave a binding signal of 0.847 enrichment R.
B5 showed a binding signal of 2.04 enrichment R.
B6 was tested, and the binding signal was 0.381 enrichment R.
B7 was tested, and the binding signal was 1.2 enrichment R.
B8 gave a binding signal of 0.865 enrichment R.
B9 gave a binding signal of 1.18 enrichment R.
Binder B10 has a binding signal of 1.1 enrichment R.
B11 showed a binding signal of 1.07 enrichment R.
B12 showed a binding signal of 1.29 enrichment R.
In the case of B13, the binding signal is reported as 0.835 enrichment R.
B14 showed a binding signal of 0.643 enrichment R.
Work on B15 yielded a binding signal of 0.975 enrichment R.
B16 was tested, and the binding signal was 1.23 enrichment R.
In the case of B17, the binding signal is reported as 0.864 enrichment R.
For B18, the binding signal was 0.906 enrichment R.
B19 gave a binding signal of 0.865 enrichment R.
B20 showed a binding signal of 0.679 enrichment R.
With B21 the binding signal was 1.86 enrichment R.
Binder B22 has a binding signal of 0.575 enrichment R.
